Each structure is given as a SMILES string. Counter-ions that a name gives are not always drawn. ± gives the standard deviation of the averaged measurements. Whole data set: some 2,000 compounds, median “relative cell viability vs DMSO, compound + 0.2 uM CuET” near 1, cut for the lowest 2% near 0.25. The list shows a part of the results.

This assay relates to TE10. Kind of assay: relative cell viability vs DMSO, compound + 0.2 uM CuET (fraction); TE10 is an esophageal squamous carcinoma line; higher = less cytotoxic. Conditions: 2 µM; co-treatment: CuET (bis(diethyldithiocarbamate)copper) 0.2 uM; 48 h. How it is done:
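TE10 ESCC cells (1,000/well, 384-well plates) were treated with Selleck bioactive library compounds at 2 uM combined with 0.2 uM CuET (copper diethyldithiocarbamate) for 48 h. Viability was read by CellTiter-Glo and expressed relative to DMSO wells. Two technical replicates (A, B).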
On to `COc1ccc(NS(=O)(=O)c2sc3ccc(Cl)cc3c2C)cc1N1CCNCC1`, for which the relative cell viability was determined as 1.31 ± 0.084.
As for `C#CCN[C@@H]1CCc2ccccc21` [Rasagiline Mesylate], the figure is 0.963 ± 0.029; as for `COc1cc(OC2CCN(C)CC2)ccc1Nc1ncc2c(n1)n(C1CCCC1)c(=O)n2C`, 1.22 ± 0.28; as for `CCOC(=O)O[C@]1(C(=O)OCCl)CC[C@H]2[C@@H]3CCC4=CC(=O)C=C[C@]4(C)[C@H]3[C@@H](O)C[C@@]21C` [Loteprednol etabonate], 0.966 ± 0.041.
Turning to `CCc1c2c(nc3ccc(O)cc13)-c1cc3c(c(=O)n1C2)COC(=O)[C@]3(O)CC`, the relative cell viability was found to be 0.441 ± 0.02.
The result for `O=C(NCC1(c2nc(-c3ccccc3)cs2)CCOCC1)c1cccc(-c2noc(C(F)(F)F)n2)c1` reads 1.05 ± 0.092; that for `O=C(O)C(=O)O.[NH-][C@@H]1CCCC[C@H]1[NH-].[Pt+2]` [Oxaliplatin], 1.0357 ± 0.00045; that for `Cc1nn(-c2ccccc2)c(C)c1C=NN1CCN(Cc2ccccc2)CC1`, 0.999 ± 0.091.
For `CC(C)C(=O)Oc1ccc(CO)cc1[C@H](CCN(C(C)C)C(C)C)c1ccccc1` [Fesoterodine Fumarate], the relative cell viability was 1.04 ± 0.034.
The result for `Cc1ccc(NC(=O)c2ccc(CN3CCN(C)CC3)cc2)cc1Nc1nccc(-c2cccnc2)n1` [Imatinib (STI571)] reads 1.05 ± 0.1.
As for `Cc1ccc(NC(=O)c2ccc(CN3CCN(C)CC3)cc2)cc1Nc1nccc(-c2cccnc2)n1` [Imatinib Mesylate (STI571)], the figure is 1.43 ± 0.12; as for `COc1cc2c(cc1OC)CC(=O)N(CCCN(C)C[C@H]1Cc3cc(OC)c(OC)cc31)CC2` [Ivabradine HCl], 1.01 ± 0.19.
The result for `Cc1c(C(=O)NN2CCCCC2)nn(-c2ccc(Cl)cc2Cl)c1-c1ccc(Cl)cc1` [Rimonabant] reads 0.716 ± 0.15; that for `C[C@@H](Nc1cc(F)cc(F)c1)c1cc(C(=O)N(C)C)cc2c(=O)cc(N3CCOCC3)oc12`, 0.951 ± 0.022.
Consider `COc1cc2c(c(OC)c1OC)-c1c(cc3c(c1OC)OCO3)CC(C)C(C)C2` (configuration not stated) [Schisandrin B (Sch B)], for which the relative cell viability turned out to be 1.15 ± 0.12.
Take `CCOC(=O)c1cnc2ccc(-c3cncc(NS(=O)(=O)c4ccccc4)c3)cn12`: the relative cell viability came to 0.533 ± 0.018.
As for `COc1cc(C(=O)N2CCC(N3CCN(C)CC3)CC2)ccc1Nc1ncc2c(n1)N(C)c1ccccc1C(=O)N2C`, the figure is 0.93 ± 0.068; as for `Clc1ccc(C(Cn2ccnc2)OCc2ccsc2Cl)c(Cl)c1` (configuration not stated) [Tioconazole], 0.85 ± 0.028; as for `CC1(C)O[C@H]2CC(=O)OC[C@]23[C@H]2CC[C@@]4(C)[C@H](c5ccoc5)OC(=O)[C@H]5O[C@]54[C@]2(C)C(=O)C[C@@H]13` [Limonin], 1.1 ± 0.023.
As for `NC(=O)c1cccc(-c2cc(Nc3ccc(OC(F)(F)F)cc3)ncn2)c1`, the figure is 0.941 ± 0.068; as for `CCN(CC)CCOC(=O)c1ccc(N)cc1Cl` [Chloroprocaine HCl], 1.21 ± 0.089; as for `Cc1ccc(-c2nn(C(C)(C)C)c3ncnc(N)c23)cc1`, 0.973 ± 0.046.
Regarding `CCCCCCOC(=O)NC(=N)c1ccc(NCc2nc3cc(C(=O)N(CCC(=O)OCC)c4ccccn4)ccc3n2C)cc1` [Dabigatran Etexilate], the relative cell viability was 0.8292 ± 0.0057.
The result for `COc1ccc(O)cc1` [Mequinol] reads 1.16 ± 0.15; that for `NC(=O)c1cnc(N[C@@H]2CCCC[C@@H]2N)nc1Nc1cccc(-n2nccn2)c1`, 0.952 ± 0.021.
As for `NS(=O)(=O)c1cc2c(cc1Cl)NC(C(Cl)Cl)NS2(=O)=O` (configuration not stated) [Trichlormethiazide], the figure is 1.01 ± 0.018; as for `CN[C@@H]1[C@H](O)[C@H](NC)[C@H]2O[C@@]3(O)C(=O)C[C@@H](C)O[C@H]3O[C@@H]2[C@H]1O` [Spectinomycin HCl], 1.2 ± 0.029.
In the case of `COC(=O)C1=CO[C@@H](O[C@@H]2O[C@H](CO)[C@@H](O)[C@H](O)[C@H]2O)[C@@H]2C(CO)=CC[C@H]12` [Geniposide], the relative cell viability turned out to be 1.05 ± 0.068.
For `Cc1onc(-c2ccccc2Cl)c1C(=O)N[C@@H]1C(=O)N2[C@@H]1SC(C)(C)[C@@H]2C(=O)O` [Cloxacillin Sodium], the relative cell viability worked out at 0.997 ± 0.11.
Take `COc1ccc(Cn2ccc3ccc(C(=O)NO)cc32)cc1`: the relative cell viability stood at 0.685 ± 0.085.
The result for `C#Cc1cccc(Nc2ncnc3cc(OCCOC)c(OCCOC)cc23)c1` [Erlotinib HCl (OSI-744)] reads 1.18 ± 0.1.
Consider `C#Cc1cccc(Nc2ncnc3cc(OCCOC)c(OCCOC)cc23)c1` [Erlotinib], for which the relative cell viability was 0.996 ± 0.091.
In the case of `CN1CCC[C@@H]1Cc1c[nH]c2ccc(CCS(=O)(=O)c3ccccc3)cc12` [Eletriptan HBr], the relative cell viability was determined as 0.718 ± 0.31.
The result for `COc1cc2c(Oc3ccc(NC(=O)C4(C(=O)Nc5ccc(F)cc5)CC4)cc3F)ccnc2cc1OCCCN1CCOCC1` reads 0.602 ± 0.031.
The result for `C[S+]([O-])c1ccc(-c2nc(-c3ccc(F)cc3)c(-c3ccncc3)[nH]2)cc1` (configuration not stated) reads 1.28 ± 0.015; that for `COc1cc(N2CCC(N(C)C)CC2)ccc1Nc1ncc(Cl)c(Nc2ccccc2P(C)(C)=O)n1`, 0.858 ± 0.026; that for `COc1ccccc1Oc1c(NS(=O)(=O)c2ccc(C(C)(C)C)cc2)nc(-c2ncccn2)nc1OCCO` [Bosentan Hydrate], 1.26 ± 0.23.
The result for `COc1ccccc1Oc1c(NS(=O)(=O)c2ccc(C(C)(C)C)cc2)nc(-c2ncccn2)nc1OCCO` [Bosentan] reads 1.04 ± 0.015; that for `CC1=NN(c2ccccc2)C(=O)C1` [Edaravone], 1.37 ± 0.095.
As to `CCN(CC)CCNC(=O)c1cc(Cl)c(N)cc1OC` [MetoclopraMide HCl], the relative cell viability is 1.15 ± 0.025.
As for `CCOc1ccc2ccccc2c1C(=O)N[C@@H]1C(=O)N2[C@@H]1SC(C)(C)[C@@H]2C(=O)O` [Nafcillin Sodium], the figure is 1.14 ± 0.16; as for `C=C1/C(=C\C=C2/CCC[C@]3(C)[C@@H]([C@H](C)CCCC(C)C)CC[C@@H]23)C[C@@H](O)C[C@@H]1O` [Alfacalcidol], 1.35 ± 0.14; as for `CO[C@H]1/C=C\C=C(/C)C(=O)NC2=CC(=O)C(NCCN(C)C)=C(C[C@@H](C)C[C@H](OC)[C@H](O)[C@@H](C)/C=C(\C)[C@@H]1OC(N)=O)C2=O` [17-DMAG (Alvespimycin) HCl], 0.703 ± 0.081.
The result for `CCC[C@@H]1C[C@@H](C(=O)N[C@@H]([C@H]2O[C@H](SC)[C@H](O)[C@@H](O)[C@H]2O)[C@H](C)Cl)N(C)C1` [Clindamycin] reads 1.39 ± 0.22; that for `CCC[C@@H]1C[C@@H](C(=O)N[C@@H]([C@H]2O[C@H](SC)[C@H](O)[C@@H](O)[C@H]2O)[C@H](C)Cl)N(C)C1` [Clindamycin HCl], 1.27 ± 0.11; that for `O=C(O)CCNC(=O)c1ccccc1` [Betamipron], 1.014 ± 0.0048.
In the case of `O=C(N[C@H](CO)[C@H](O)c1ccc([N+](=O)[O-])cc1)C(Cl)Cl` [Chloramphenicol], the relative cell viability came to 1 ± 0.015.
With `Oc1ccc(/C=C/c2cc(O)cc(O)c2)cc1` [Resveratrol], the relative cell viability came to 0.852 ± 0.11.
As for `Cc1ncc(CCCN(C)C)cc1Nc1ncc2c(n1)-c1ccc(C(F)(F)F)cc1NC(=S)C2`, the figure is 0.937 ± 0.021; as for `CCOC(=O)C1=C(COCCN)NC(C)=C(C(=O)OC)C1c1ccccc1Cl` (configuration not stated) [Amlodipine besylate (Norvasc)], 0.948 ± 0.01; as for `CCOC(=O)C1=C(COCCN)NC(C)=C(C(=O)OC)C1c1ccccc1Cl` (configuration not stated) [Amlodipine], 1 ± 0.017.
For `COc1ccc(C2=NC(c3ccc(Cl)cc3)C(c3ccc(Cl)cc3)N2C(=O)N2CCNC(=O)C2)c(OC(C)C)c1` (configuration not stated) [Nutlin-3b], the relative cell viability amounted to 1.17 ± 0.094.
For the molecule `COc1ccc(C2=NC(c3ccc(Cl)cc3)C(c3ccc(Cl)cc3)N2C(=O)N2CCNC(=O)C2)c(OC(C)C)c1` (configuration not stated) [Nutlin-3a], the relative cell viability was 1.149 ± 0.0057.
The result for `CCN(CC)CCNC(=O)c1c(C)[nH]c(/C=C2\C(=O)Nc3ccc(F)cc32)c1C` [Sunitinib] reads 1.14 ± 0.057.
Take `CCN(CC)CCNC(=O)c1c(C)[nH]c(/C=C2\C(=O)Nc3ccc(F)cc32)c1C` [Sunitinib Malate]: the relative cell viability came to 1.04 ± 0.19.
As for `COc1ccc(/C=C/C(=O)Nc2ccccc2C(=O)O)cc1OC` [Tranilast], the figure is 1.175 ± 0.0021.
As for `CCOc1cc2ncc(C#N)c(Nc3ccc(F)c(Cl)c3)c2cc1NC(=O)/C=C/CN(C)C` [Pelitinib (EKB-569)], the figure is 0.908 ± 0.15; as for `Cc1c(N(C)C)c(=O)n(-c2ccccc2)n1C` [Amidopyrine], 1.31 ± 0.1.
For the molecule `C=C1C(=O)[C@]23[C@H](O)[C@H]1CC[C@H]2[C@@]12CO[C@]3(O)[C@@H](O)[C@@H]1C(C)(C)CC[C@@H]2O` [Oridonin], the relative cell viability turned out to be 0.6312 ± 0.00067.
As to `Cc1cc(/C=C/C#N)cc(C)c1Nc1ccnc(Nc2ccc(C#N)cc2)n1` [Rilpivirine], the relative cell viability is 1.06 ± 0.16.
As for `Cc1cc(=O)[nH]c(=S)[nH]1` [Methylthiouracil], the figure is 1.01 ± 0.048.
As for `CC(=O)[C@H]1CC[C@H]2[C@@H]3C=CC4=CC(=O)CC[C@@]4(C)[C@@H]3CC[C@]12C` [Dydrogesterone], the figure is 1.05 ± 0.18.
As for `CC[C@]1(O)C[C@H]2CN(CCc3c([nH]c4ccccc34)[C@@](C(=O)OC)(c3cc4c(cc3OC)N(C=O)[C@H]3[C@@](O)(C(=O)OC)[C@H](OC(C)=O)[C@]5(CC)C=CCN6CC[C@]43[C@@H]65)C2)C1` [Vincristine], the figure is 0.701 ± 0.17; as for `Nc1nc(CC(=O)Nc2ccc(CCNC[C@H](O)c3ccccc3)cc2)cs1` [Mirabegron], 1.17 ± 0.053; as for `COc1ccccc1OCC(O)CO` (configuration not stated) [Guaifenesin], 1.01 ± 0.095.
On to `Cc1cccc(C)c1OCC(C)N` (configuration not stated) [Mexiletine HCl], for which the relative cell viability stood at 1.16 ± 0.051.
As for `CN1[C@@H]2CC[C@H]1C[C@@H](OC(=O)c1c[nH]c3ccccc13)C2` [Tropisetron], the figure is 1.05 ± 0.0039.
As for `Cc1cc(O)c2c(c1)C(=O)c1cccc(O)c1C2=O` [Chrysophanic Acid], the figure is 0.731 ± 0.036; as for `NC(=O)c1cn(Cc2c(F)cccc2F)nn1` [Rufinamide], 1.26 ± 0.15.
For the molecule `CC(C(=O)O)c1ccc(-c2ccccc2)c(F)c1` (configuration not stated) [Flurbiprofen], the relative cell viability came to 1.02 ± 0.069.
`Cc1c(OCC(F)(F)F)ccnc1C[S@@+]([O-])c1nc2ccccc2[nH]1` [Dexlansoprazole]: the relative cell viability worked out at 1.09 ± 0.011.
For the molecule `CC[C@H]1OC(=O)[C@H](C)[C@@H](O[C@H]2C[C@@](C)(OC)[C@@H](O)[C@H](C)O2)[C@H](C)[C@@H](O[C@@H]2O[C@H](C)C[C@H](N(C)C)[C@H]2O)[C@](C)(O)C[C@@H](C)C(=O)[C@H](C)[C@H]2OC(=O)O[C@@]21C` [Erythromycin Cyclocarbonate], the relative cell viability was determined as 1.19 ± 0.04.

The values are drawn from the supplement of paper PMC10670038.
